Test results as given in PubChem BioAssay AID588855 (National Center for Advancing Translational Sciences (NCATS), 2011).
About 5,000 (1.2%) of roughly 410,000 compounds were called active. Inconclusive results, whose numbers are uncertain, are shown with a selection of clear calls. Calls follow the shape of the dose curve; as a rule, active = well fitted inhibition curve with a large enough effect; inconclusive = small, poorly fitted or top-dose-only effect; inactive = no such curve, though single readings can be large or run the other way. A potency beside an inconclusive call is a rough fit, not a confirmed value.

Assay: qHTS for Inhibitors of TGF-b; also: nearly all actives have a fitted effect of over 65% in size
Settings: HepG2 CAGA-GFP TGF-b/SMAD3 reporter, GFP fluorescence, 18 h, TGF-beta stimulated, 500 pg/mL final; series mostly up to 46.1 µM; activity, negative = inhibition: at the top concentration
Outline: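 HEPG2 CAGA-GFP, 1000 cells/well; 2 h settle, 37 C; cpd via pin tool; TGF-b 500 pg/mL final; 18 h, 37 C; GFP imaging ex488/em500-530; %Activity normalised to -TGF-b and +DMSO controls; CRC fit, curve class.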
% is scaled to controls: 0 for no effect and ±100 for the full control effect; potency is read from the fitted curve at half-maximal effect; tags tell the direction and shape of the fitted curve.

SMILES	Potency	activity, negative = inhibition
COc1ccc(-c2sc3ccc(-c4ccc5c(c4)OCO5)cc3c2-c2ccc(OC)nc2)cc1	inconclusive: 6.31 µM [inhibitor, single point]	
Cc1ccc(C(=O)Nc2nc(-c3ccc([N+](=O)[O-])cc3)cs2)o1	inconclusive: 0.112 µM [inhibitor, full curve, poor fit]	
Cc1nn(-c2ccccn2)c2c1-c1nc(N3CCOCC3)ncc1CC2	inconclusive: 35.5 µM [inhibitor, single point]	
CCn1cnc2c1c(=O)[nH]c(=O)n2Cc1ccccc1	inconclusive: 5.01 µM [inhibitor, full curve]	
COC(=O)c1ccc(C(NC(=O)OCc2ccccc2)/C(F)=C/[C@@H](C)C(=O)NCc2ccc(OC)c(OC)c2)cc1 (stereo partly drawn)		inactive: -17.6%
N#Cc1ccccc1Cn1cc(/C=C/[N+](=O)[O-])c2ccccc21	active: 4.47 µM	
COc1ccc(-c2cc3c(c4c2ccn4C)C2CCC3C2)cc1F (stereo not drawn)	inconclusive: 25.1 µM [inhibitor, single point]	
Cc1cccc(C)c1NC(=O)c1sccc1SCc1cccc(C(F)(F)F)c1	inconclusive: 22.4 µM [inhibitor, single point]	
Cc1ccccc1-n1c(SCc2ccc(Cl)cc2)nc2[nH]ncc2c1=O	inconclusive: 35.5 µM [inhibitor, single point]	
CC(/C=N/NC(=O)c1n[nH]c2c1CCC2)=C\c1ccccc1	inconclusive: 11.2 µM [inhibitor, single point]	
CCC(=O)NC(c1ccco1)c1cc(Cl)c2cccnc2c1O (stereo not drawn)	inconclusive: 2.82 µM [inhibitor, full curve]	
Cc1cc(C)n(/N=C/c2ccccc2O)c(=O)c1		inactive: 1.57%
CCCNC(=O)c1ccc2nc(CCc3ccccc3)oc2c1		inactive: -11.5%
CCCCOc1ccc(C(=O)C(CN2CCOCC2)c2ccccc2)cc1 (stereo not drawn)	inconclusive: 35.5 µM [inhibitor, single point]	
CCOC(=O)CC1C(=O)NCCN1C(=O)NC1CCCCC1 (stereo not drawn)	inconclusive: 11.2 µM [inhibitor, partial curve]	
CC(C)(C)c1ccc(S(=O)(=O)N2CCN(Cc3noc(CCC(=O)N4CCCCC4)n3)CC2)cc1	inconclusive: 11.2 µM [inhibitor, partial curve, poor fit]	
CN1CCN(c2ccc(NC(=O)COc3ccccc3Cl)cc2)CC1		inactive: 3.73%
CN(Cc1ccccc1)C(=O)c1ccc(Nc2nc(C(N)Cc3ccccc3)cs2)nc1 (stereo not drawn)	inconclusive: 25.1 µM [inhibitor, single point]	
Cc1cc(C)n(-c2nncc(-c3ccccc3)n2)n1		inactive: 9.29%
O=C(CN1C(=O)CCc2cc(S(=O)(=O)N3CCOCC3)ccc21)NCc1ccccc1	inconclusive: 35.5 µM [inhibitor, single point]	
COc1ccc(C2=NS(=O)(=O)N(C)C(C(=O)Nc3ccc(OC)c(OC)c3)=C2)cc1	inconclusive: 17.8 µM [inhibitor, single point]	
CCOc1ccc(C(C)NC(=S)NC2CCCCC2)cc1OCC (stereo not drawn)	inconclusive: 7.94 µM [inhibitor, partial curve, poor fit]	

SMILES	Potency	activity, negative = inhibition
COC(=O)CCC(=O)NC1CC(C)(C)Cc2c1cnn2-c1ccc(F)cc1 (stereo not drawn)		inactive: -2.91%
CC(C)(C)c1cc(Cl)ccc1OCCOCCN1CCCC1	inconclusive: 35.5 µM [inhibitor, single point]	
O=C(Nc1ccc2nc(-c3ccccn3)c(-c3ccccn3)nc2c1)N1CCOCC1	inconclusive: 35.5 µM [inhibitor, single point]	
Cc1ccc(C(=O)c2c(NC(=O)c3cccnc3)sc3c2CCCC3)cc1	inconclusive: 7.08 µM [inhibitor, partial curve]	
CN(C)C(=O)c1cccc(-c2cnc3c(NC=O)cc(-c4cccc(C(F)(F)F)c4)cn23)c1	inconclusive: 14.1 µM [inhibitor, single point]	
CC(NCc1ccc(OCC(N)=O)cc1)C12CC3CC(CC(C3)C1)C2 (stereo not drawn)		inactive: 5.87%
COc1ccc2c(c1)C=C(C(=O)NCc1ccc(Cl)cc1)CO2		inactive: -41.6%
CC(=O)N1CCc2c(sc3c2c(=O)n(CCc2ccccc2)c(=O)n3Cc2ccc(Cl)cc2)C1	inconclusive: 15.8 µM [inhibitor, partial curve]	
CCOC(=O)N1CCN(C(=O)c2ccc(NS(=O)(=O)c3ccc(C)cc3)cc2)CC1		inactive: -4.12%
C[C@@H]1CN([C@@H](C)CO)C(=O)c2cc(NC(=O)Nc3ccccc3)ccc2O[C@@H](C)CCCCO[C@H]1CN(C)C(=O)Nc1ccc(C(F)(F)F)cc1		inactive: -7.54%
CCN(Cc1ccncc1)C(=O)c1cc(COc2ccc(F)cc2Cl)on1	inconclusive: 35.5 µM [inhibitor, single point]	
CCc1ccc(NC(=O)c2ccc3[nH]c(C)c(C)c3c2)cc1		inactive: 0.121%
C[C@H](NCc1c[nH]c2ccccc12)c1ccccc1	inconclusive: 22.4 µM [inhibitor, single point]	
COc1ccc(OCCN2CCN(C(=O)c3ccc(OC)cc3)CC2)cc1	inconclusive: 10 µM [inhibitor, partial curve, poor fit]	
CC(C)CC(=O)/C(=C\c1ccc(Cl)cc1Cl)n1cncn1	active: 7.08 µM	
Cc1ccc(N2C(=O)CC(Sc3cccs3)C2=O)cc1 (stereo not drawn)		inactive: -10.9%
CCOc1ccc(N2C(=O)C(Cl)=C(Nc3ccccc3O)C2=O)cc1	inconclusive: 10 µM [inhibitor, partial curve]	
c1ccc(-c2ccccc2OCCOCCN2CCc3ccccc3C2)cc1	inconclusive: 12.6 µM [inhibitor, single point]	
CC1=CC(C)(C)N(C)C(=O)N1c1ccc(Cl)cc1	inconclusive: 5.62 µM [inhibitor, single point]	
CCSc1ncc(Cl)c(C(=O)Nc2ccc(S(=O)(=O)N3CCCCC3)cc2)n1	inconclusive: 7.08 µM [inhibitor, full curve, poor fit]	
Cc1cnccc1CN(C)Cc1cn(C)nc1-c1ccc(Oc2ccccc2)cc1	inconclusive: 11.2 µM [inhibitor, partial curve]	
